Measurements reported in publication PMC2148190 (The Journal of Cell Biology, 1999).

Key:
Assay in all cases: co-IP
[1] = molecular target: T1, His-tagged Bid (recombinant wild-type Bid) (mouse, UniProt P70444)
T1 sequence: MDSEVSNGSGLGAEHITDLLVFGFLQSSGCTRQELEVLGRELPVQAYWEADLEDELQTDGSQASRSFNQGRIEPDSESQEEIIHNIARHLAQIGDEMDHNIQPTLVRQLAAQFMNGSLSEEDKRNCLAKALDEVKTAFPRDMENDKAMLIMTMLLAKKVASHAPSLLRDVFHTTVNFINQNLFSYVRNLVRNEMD

BidmIII-1 (M97,D98→ A,A) = molecular target: T2, BidmIII-1 (M97,D98→ A,A) (mouse, UniProt P70444, M97,D98→ A,A)
T2 sequence: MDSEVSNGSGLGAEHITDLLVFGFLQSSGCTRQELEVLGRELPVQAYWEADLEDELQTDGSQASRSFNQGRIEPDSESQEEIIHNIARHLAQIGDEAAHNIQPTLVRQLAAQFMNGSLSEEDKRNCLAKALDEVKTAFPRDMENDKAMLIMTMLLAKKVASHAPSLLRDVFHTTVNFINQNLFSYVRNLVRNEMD

BidmIII-3 (G94→ A) = molecular target: T3, BidmIII-3 (G94→ A) (mouse, UniProt P70444, G94→ A)
T3 sequence: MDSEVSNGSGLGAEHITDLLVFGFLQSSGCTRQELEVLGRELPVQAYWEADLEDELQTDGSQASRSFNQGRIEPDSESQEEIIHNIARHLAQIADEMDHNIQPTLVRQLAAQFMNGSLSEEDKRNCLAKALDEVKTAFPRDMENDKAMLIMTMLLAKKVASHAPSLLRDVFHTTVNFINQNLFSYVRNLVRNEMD

Measured: binding result

B1: Human Bax-α lacking 20 amino acids at the COOH terminus (domain or fragment)
chain: not shown
binds: all assays above
